In the BET-seq Pho4 binding data (Le et al. 2018):
Some of the results follow. Values were computed here from the reads of four pooled replicates and scatter widely.

target: T1, Pho4 (S. cerevisiae) (UniProt P07270); assay: relative binding free energy (BET-seq); higher = weaker binding; conditions: reference: library average
T1 sequence: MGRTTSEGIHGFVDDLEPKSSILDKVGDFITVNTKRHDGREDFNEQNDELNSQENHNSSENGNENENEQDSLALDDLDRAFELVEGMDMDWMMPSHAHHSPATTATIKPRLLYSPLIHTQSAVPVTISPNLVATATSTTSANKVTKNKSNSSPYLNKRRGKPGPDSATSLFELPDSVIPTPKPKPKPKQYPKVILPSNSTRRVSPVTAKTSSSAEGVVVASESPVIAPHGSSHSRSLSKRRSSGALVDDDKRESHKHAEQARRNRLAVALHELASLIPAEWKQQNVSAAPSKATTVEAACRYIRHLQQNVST

Sequence	relative binding free energy [kJ/mol]
TCAAACACGTGAGGGG	0.628
TACTGCACGTGAATTG	1.42
CTTAACACGTGATGTA	1
TATGACACGTGAGTGG	1.05
CAAGTCACGTGATGTG	0.628
AGAATCACGTGTTCGT	0.628
GCGTTCACGTGTTGAA	1.3
GGATGCACGTGGAAGT	0.544
TTACTCACGTGGTAAT	0.46
TAGCACACGTGTTGGT	0.335
GACTTCACGTGGTTAG	1.84
GAACACACGTGGGGGG	0.209
GGCTGCACGTGGGTTC	-0.0837
TATATCACGTGTAATT	0.46
AGGATCACGTGAGGGT	1.72
TTGGACACGTGTCGGG	0.126
CGGGGCACGTGTAAGT	-0.293
AGAGTCACGTGGATCG	0.418
ATTAACACGTGTATAG	-0.0837
CGTTGCACGTGATGCA	0.377
AGTAGCACGTGAGTAT	0.711
AGTGCCACGTGTTTTA	-0.586
TGGACCACGTGTATGG	0.251
TGGGGCACGTGCAGGA	-0.795
CATTTCACGTGTGGGA	0.92
TGGTCCACGTGGAGAT	0.0837

Sequence	relative binding free energy [kJ/mol]
GTGTACACGTGTCGTG	0.544
TAGGACACGTGGTCAG	-0.586
GGTTACACGTGGCGGA	0.377
TAAACCACGTGTTGTT	0.126
GGGGCCACGTGTAGGC	-0.251
TTATGCACGTGATCTT	-0.293
ATTTGCACGTGGGGAG	-0.209
TTGGACACGTGTCGGC	0.502
AGCGGCACGTGCGGAT	0.126
CGCGGCACGTGAAGGT	0.586
TATTTCACGTGTGAGC	1.21
TTCAGCACGTGAAAGG	1.09
TGTTTCACGTGGACGG	1.67
TAATGCACGTGGAGGT	-0.0418
TCATACACGTGGAGGT	0.418
GGGATCACGTGAATGT	1.42
GTGGTCACGTGTACTG	0.586
AGTAGCACGTGTTTGG	-0.293
TTATTCACGTGCGTGG	0.92
CTGGACACGTGGTATT	0.0837
GGTCGCACGTGGTGGA	-0.377
AGGCTCACGTGTTATG	1
GTGTTCACGTGCATGT	0.586
GGGTTCACGTGGTATT	1.38
GTGTTCACGTGGTCAG	0.837
TTGGGCACGTGACTGG	-0.377

Sequence	relative binding free energy [kJ/mol]
TGATTCACGTGATCGG	1.21
TGGCTCACGTGTGGCT	0.711
TTAAACACGTGAAGGA	1.88
GTCGGCACGTGGATGA	0.335
AGTCACACGTGTCGTG	0.502
CGCTGCACGTGGTGTG	-0.293
TGGAACACGTGGGAAT	-0.0837
GATTGCACGTGTGATG	0.92
GTAGGCACGTGCAAGT	0.251
GGGGACACGTGTTAGG	-0.167
ATTGTCACGTGGGTCT	-0.293
CTGGGCACGTGTTGGG	-0.0418
TTGGCCACGTGGTGTA	-0.753
GAGGACACGTGTGGTC	0.92
ATAGTCACGTGTCAGT	0.711
ACGGTCACGTGCTGGG	0.293
TCTGGCACGTGGGTAT	-1
TTTAACACGTGAATGT	0.795
GTTTTCACGTGTGTCC	1.26
CGGCACACGTGGTTGG	0.167
AGTTACACGTGGTCGA	0.418
TAATTCACGTGAGTTT	1.42
AATATCACGTGTGCAG	0.669
TGGCTCACGTGTATTA	0.46
AAAGGCACGTGTGAAG	0.209
CGTTGCACGTGTTATT	0.293

Sequence	relative binding free energy [kJ/mol]
TGGTACACGTGCGAGG	0.0837
AGTCCCACGTGGTGGG	-1
GTGCTCACGTGGCGTG	0.544
ATTCACACGTGTTTAT	0.167
CGGTGCACGTGGTGTC	-0.377
TCGGTCACGTGTGAGT	0.753
AAGTTCACGTGATGGC	1.38
TTTTTCACGTGCGCGA	0.795
CATGTCACGTGAAGTG	1
CGGGGCACGTGGGCCG	-1.3
TATGACACGTGTTTCT	0.335
CCAGGCACGTGTTGGT	-0.628
AGTTTCACGTGTGTGA	0.753
TGTGGCACGTGGCCCT	-0.586
ATTTACACGTGCGTGG	0.0837
CATGGCACGTGGTGGC	-1.17
GTCTGCACGTGATTTT	1
AGGTCCACGTGCTGGT	-0.418
GGAGTCACGTGTGATG	1.05
GGGAGCACGTGGGGGA	-1.09
AGGTGCACGTGATAGG	-0.209
GTGCACACGTGGGAAG	-0.0418
GTGATCACGTGATGTT	1.84
TGTGTCACGTGGTAAT	0.126
GGGTTCACGTGGAGGC	1.17
AACTTCACGTGGGGTG	0.209

Sequence	relative binding free energy [kJ/mol]
GTTAGCACGTGTACTT	0.293
GTACGCACGTGTGCGG	-0.0837
GTCATCACGTGGTTGA	0.0837
TTGTGCACGTGTGGTG	0.126
CGTAGCACGTGGGGGA	-1.05
CTGGTCACGTGGTCGT	0.209
TAGTACACGTGGGTAT	-0.126
GTGTTCACGTGAGTTC	1.97
TGGCTCACGTGGGAGC	0.628
GATTCCACGTGGGTTT	0.251
GGGAGCACGTGCGGGC	-0.837
CTGTTCACGTGTTAGT	0.753
CGTCTCACGTGTGTTT	0.418
TTGGTCACGTGTTACG	0.418
TGACACACGTGAGGGG	0.669
TGGATCACGTGCAGGA	0.837
TGGGTCACGTGACTAA	0.837
ATCTTCACGTGCGTGT	0.628
TTTATCACGTGTTTAT	0.628
GGGACCACGTGATGGG	0.293
TATAACACGTGTGATG	-0.335
TTTATCACGTGTTACG	0.209
AATGACACGTGGGGCT	-0.879
AGAATCACGTGTATAG	0.879
TATGCCACGTGGGGGA	-1.05
TGGTGCACGTGAAGTT	0.879

Sequence	relative binding free energy [kJ/mol]
AGAGTCACGTGGTGGG	0.586
GAGGTCACGTGTTATG	0.837
ATTCGCACGTGCTGGT	-0.544
CTTGACACGTGTTTAT	-0.209
GCGTTCACGTGGTTAG	1.59
CGGGTCACGTGGGAAG	-0.126
TAGTCCACGTGTTAGG	-0.418
GAAGTCACGTGGGTTC	0.293
GCAGTCACGTGGTGAG	0.418
TTTGCCACGTGTGCGG	-1.05
GTTTACACGTGCTGGT	0.837
GTGTACACGTGGGGTT	-0.167
GGGTGCACGTGAGGCG	0.795
AATTACACGTGAATTA	1.59
GAGTGCACGTGATTGA	0.46
GGATACACGTGTGTGA	0.544
GGGGCCACGTGGGGCA	-0.628
TGCGCCACGTGGGTTA	-0.669
AGAGTCACGTGTGCTT	-0.126
CAAGACACGTGGTTGG	0.0837
GGTATCACGTGTTTAT	1.05
GTCCGCACGTGGGGGC	-0.753
TACGGCACGTGTGTTA	-0.377
CATATCACGTGGTGAG	0.209
TATGACACGTGGCAGG	-0.167
TGTTCCACGTGCGTTG	0

Sequence	relative binding free energy [kJ/mol]
GGTCTCACGTGGGGCG	0.586
TATATCACGTGGGTTT	0.293
ACGCTCACGTGGTGGT	0.418
AGGCACACGTGATGTG	0.879
CAAGTCACGTGCAGGG	1.09
TTTCTCACGTGGCTTT	1.17
TAATGCACGTGTATAA	0.0837
GTGGACACGTGCTATG	-0.0837
GGAGTCACGTGTTTTG	1.09
TTATGCACGTGGTATG	-0.46
AAGAGCACGTGTTTAA	0
GTGGACACGTGAGGGA	0.837
TGTAACACGTGGTAGT	0.0418
AGTTACACGTGTTTTT	0.628
GTTGGCACGTGGTACA	-0.669
GAGTACACGTGGGATG	0.502
TGGGTCACGTGGAAAT	1.17
CATGTCACGTGTTTTT	0.502
ACGGTCACGTGTTGGA	0.0837
TGCAGCACGTGAGGTG	0.502
TAGGGCACGTGCTTTG	-1.26
ATCATCACGTGAGTGT	1.21
AGTAACACGTGGTTGG	-0.0418
TTAATCACGTGCTTTA	0.335
TATGTCACGTGGTCTC	0.418
TGGTTCACGTGGTTAT	0.879

Sequence	relative binding free energy [kJ/mol]
TGGAGCACGTGATATG	-0.209
GCGGGCACGTGTAGAA	0.502
TAAGACACGTGTTTTG	0.167
ATAGGCACGTGCTGGT	-0.879
GAATACACGTGTTGTG	-0.0837
CGAGTCACGTGTGTGT	0.502
TTTTGCACGTGATTGG	0.46
TAGGTCACGTGGCTTT	-0.251
AGGTTCACGTGGCTTT	1.26
TAGGGCACGTGGTGCT	-0.962
ATTAGCACGTGCTTGT	-0.669
AGTACCACGTGGTAGG	-0.418
TGAGTCACGTGAGTAT	1.17
TTCAACACGTGTTGGA	0.753
ATTGCCACGTGGTAGA	-0.544
GTAAGCACGTGTGGCT	0.418
TAGGTCACGTGTATGG	0.293
GTTTACACGTGTGCAA	1.46
TTAGTCACGTGAGATG	1.76
GGTTACACGTGTCGTA	0.544
TCTTGCACGTGTGGTT	0.126
AGAGACACGTGTAGGG	-0.0418
ATGAGCACGTGTTAAG	-0.586
CAGGTCACGTGCTTGT	0.251
CCGGTCACGTGTTGTT	0.377
TTATTCACGTGTGGCG	1.3

Sequence	relative binding free energy [kJ/mol]
GAGTTCACGTGTGATA	1.67
TTAAACACGTGGAGCG	0.711
ATTTTCACGTGAGTCT	1.46
GGGGTCACGTGTAGGA	0.837
GTATACACGTGGGTAT	0.335
TGGGACACGTGACCGG	1.21
TAGGGCACGTGTCCGG	-0.628
GCTGCCACGTGTGGGT	0
ATATGCACGTGGACTT	0.0837
GTCTGCACGTGAAAGT	1.72
GCGTTCACGTGTTTAG	1.13
GGGGTCACGTGTGCTT	0.502
GAGAGCACGTGGGAGG	-0.293
TGGAACACGTGGTGTA	-0.544
CGTGTCACGTGAGGTA	1.13
TTGATCACGTGGTATA	0.0837
ATTTCCACGTGTGGGG	0.126
GTGTGCACGTGTTTCA	-0.293
TGTTGCACGTGCGTTG	0.167
ATGTGCACGTGGGGCG	-0.669
GGTAGCACGTGTCATT	-0.293
GCTATCACGTGTGGTG	0.837
